Measured values: PubChem BioAssay AID743279 (National Center for Advancing Translational Sciences (NCATS), 2014)
About 17,000 (4.7%) of roughly 360,000 compounds were called active. Inconclusive results, whose numbers are uncertain, are shown with a selection of clear calls. Rule as the data show it: active = activity change below about -50%; inconclusive = mostly about -30% to -49%; inactive = weaker than that.

test: qHTS for Inhibitors of Inflammasome Signaling: IL-1-beta AlphaLISA Primary Screen; settings: THP-1 LPS/ATP IL-1B secretion, 16 h; at 57.5 µM, hits give low values
How it was run: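 Secreted IL-1B measured by AlphaLISA bead assay after 16 h compound exposure of THP-1 cells; compounds (final up to 57.5 uM) added 1 h before LPS (250 ng/mL) and ATP (1.25 mM) stimulation; lower signal means less secretion.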
% is scaled to controls: 0 for no effect and ±100 for the full control effect.

SMILES	activity change
CCOC(=O)Cn1nnnc1C(CC)N(Cc1cc2ccc(C)cc2[nH]c1=O)C1CCCC1 (stereo unspecified)	inactive: -0.0577%
Cc1ccc(Nc2cc(C)nc3c(C)ccc([N+](=O)[O-])c23)cc1	active: -61.1%
Cc1ccc(Nc2c(-c3ccccn3)nc3cccc(C)n23)cc1	inconclusive: -46.7%
O=c1[nH]cnc(O)c1C1C=CC=CC=C1	inconclusive: -47.9%
Cc1[nH]c2ccccc2c1C(=O)COC(=O)c1c(-c2ccccc2Cl)noc1C	inconclusive: -32.3%
CCn1c(C)c(C)c2cc(C(=O)NCCc3ccco3)ccc21	inconclusive: -38.7%
Cc1cccc(NC(=O)c2nc[nH]c2C(=O)Nc2ccccc2[N+](=O)[O-])c1	inactive: -1.63%
O=C(Cc1ccccc1)NC1CCN(S(=O)(=O)c2cccc(F)c2)CC1	inconclusive: -38.7%
O=C(COCc1cc(-c2ccc3c(c2)OCO3)on1)N1CCN(c2ccccc2)CC1	inconclusive: -45.7%
CCOc1ccc(-n2c(-c3ccco3)nc3c(cnn3-c3ccc(C)cc3)c2=O)cc1	inactive: 40%
Clc1ccc(-c2c(C3=NCCCN3)nnn2-c2ccc(Cl)cc2)cc1	inconclusive: -47.3%
COc1ccc(OCC(=O)Nc2c(C(=O)N3CCC(N4CCCCC4)CC3)oc3ccccc23)cc1	inconclusive: -31.7%
Nc1nc(N)c2cc(Sc3ccc4ccccc4c3)ccc2n1	inconclusive: -44.3%
CN(Cc1ccc(Cl)c(Cl)c1)C(=O)c1cccc(S(=O)(=O)N2CCN(Cc3ccccc3)CC2)c1	inconclusive: -46.2%
COc1ccccc1CNC(=O)COc1ccc(C)nc1[N+](=O)[O-]	inconclusive: -30.4%
CC(=O)c1ccc(NC(=O)CC23CC4CC(C2)CC(n2nnc(C)n2)(C4)C3)cc1	inactive: -12.3%
COc1ccccc1CNC(=O)CCCn1nc(C)c2c(C)n(-c3ccccc3)nc2c1=O	inconclusive: -48.5%
CCOC(CNC(=O)CN1C(=O)COc2ccc(S(=O)(=O)N3CC(C)CC(C)C3)cc21)OCC (stereo unspecified)	inconclusive: -32.3%
CC1CCN(CCC(=O)N2CCCc3c2c(=O)oc2ccc(O)cc32)CC1	inactive: -23.1%
O=C(Nc1ccc2c(c1)OCO2)N1CCN(c2ncc(C(F)(F)F)cc2Cl)CC1	active: -60.5%
Cc1cccn2c(=O)c3cc(C(N)=S)c(=N)n(CCCOC(C)C)c3nc12	inconclusive: -44.4%

SMILES	activity change
COc1ccc(C2=CC(c3ccc(F)cc3)n3nnnc3N2)cc1 (stereo unspecified)	inconclusive: -32.7%
CC1=NN(c2ccccc2)C(=O)/C1=C\c1cn(CCC#N)nc1-c1ccc(Cl)cc1	active: -85.2%
CN1C(=O)C(=O)/C(=C(/O)c2ccccc2)C1c1ccc([N+](=O)[O-])cc1 (stereo unspecified)	inactive: 0%
CCOc1ccc(CCN2C(=S)N([C@@H](CC(C)C)CN3CCCC3CN3C(=S)NC[C@@H]3Cc3ccc(O)cc3)C[C@@H]2CC(C)C)cc1 (stereo partly specified)	inconclusive: -45.8%
CC(C)(C)C(=O)NC(=S)NCCc1ccccc1	inconclusive: -30.7%
O=C(c1cc(COc2ccc(F)cc2Cl)on1)N1CCSCC1	inconclusive: -38.4%
Cc1ccccc1-n1c(SCC(=O)N/N=C/C=C/c2ccccc2[N+](=O)[O-])nc2ccccc2c1=O	inconclusive: -30.9%
O=[N+]([O-])c1ccc2nc(CN3CCCCC3)[nH]c2c1	inactive: 2.08%
CCCCc1c(-c2ccccc2)ncn1CCc1ccccc1OC	inconclusive: -39.1%
Cc1ccc(-n2c(Cc3cccn3C)nnc2SCC(=O)N2CCc3ccccc32)cc1	inconclusive: -32.2%
COc1cc2ccc(C(C)=NOC(C)=O)cc2cc1OC	inconclusive: -36.6%
O=C(CCc1ccccc1)NNC(=S)Nc1ccc(F)cc1	inactive: 9.21%
CCN1CCN(S(=O)(=O)c2cc(OCC(=O)NC3CCCCC3)c(C)cc2Cl)CC1	inconclusive: -42.3%
c1cc2ccc3ccc(CN4CCOCC4)c4ccc(c1)c2c34	active: -76.9%
CCOC(=O)[C@]12CCC=C1N(Cc1ccc3c(c1)OCO3)C(=O)[C@H](CC(=O)N1CCC(c3ccccc3)CC1)C2	inconclusive: -47.1%
COc1ccc(NC(=O)Nc2cc(C(C)(C)C)on2)cc1OC	inconclusive: -33.4%
COc1ccc(-n2cnnc2SCC(=O)NC2CCCc3ccccc32)cc1 (stereo unspecified)	inactive: 0%
CCN(CC)CC(O)COC(c1ccccc1)c1ccccc1 (stereo unspecified)	inconclusive: -30.9%
CCN(c1ccc(NC(=O)COC(=O)C(C)N=C2NS(=O)(=O)c3ccccc32)cc1)C(C)C (stereo unspecified)	inconclusive: -30.1%
CC(=O)Nc1ccc(Nc2cc(C)c3ccccc3n2)cc1	active: -92.4%
